Results are given in words; binding and its absence hold for the method and conditions named. In cells and extracts the contact can be indirect. Some results given as binding are weak or reduced against the parent protein; the word gives no strength. For some assays here: Where a sequence is shown, tags or fusion partners need not be part of it.
How the values were obtained:
Test in all cases: pull-down; GST-Dyn1 PRR constructs on GSH-sepharose beads incubated with rat brain synaptosomal (P2) lysate; 20 mM Tris pH 7.4, 150 mM NaCl, 1% Triton X-100, 1 mM EDTA, 1 mM EGTA; 4 °C, 1 h; bound proteins by Western blot with antibodies to Endophilin A and Amphiphysin 1; only the target purified
[1] = biological target: T1, GST-Dyn1xA-PRR R838A (rat) (UniProt P21575)
T1 sequence: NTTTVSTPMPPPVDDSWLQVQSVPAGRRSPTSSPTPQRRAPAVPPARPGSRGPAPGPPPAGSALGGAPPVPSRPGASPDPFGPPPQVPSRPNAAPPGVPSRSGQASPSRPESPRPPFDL

[2] = biological target: T2, GST-Dyn1xA-PRR S774/778E (rat) (UniProt P21575)
T2 sequence: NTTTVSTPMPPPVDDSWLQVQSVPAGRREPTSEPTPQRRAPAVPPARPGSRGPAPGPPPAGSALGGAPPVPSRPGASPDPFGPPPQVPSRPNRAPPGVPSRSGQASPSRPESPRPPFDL

[3] = biological target: T3, GST-Dyn1xA 806-864 P813/816A (rat) (UniProt P21575)
T3 sequence: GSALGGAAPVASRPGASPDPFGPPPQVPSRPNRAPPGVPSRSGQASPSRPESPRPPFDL

[4] = biological target: T4, GST-Dyn1xA-PRR S851/857E (rat) (UniProt P21575)
T4 sequence: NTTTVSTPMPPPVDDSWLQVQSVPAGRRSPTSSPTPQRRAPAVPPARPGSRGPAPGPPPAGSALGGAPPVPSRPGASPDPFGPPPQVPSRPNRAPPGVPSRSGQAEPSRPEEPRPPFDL

[5] = biological target: T5, GST-Dyn1xA-PRR P833/836A (rat) (UniProt P21575)
T5 sequence: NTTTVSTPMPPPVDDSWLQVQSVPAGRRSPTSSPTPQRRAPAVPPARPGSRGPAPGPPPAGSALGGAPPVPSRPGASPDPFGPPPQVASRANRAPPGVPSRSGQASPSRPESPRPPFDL

[6] = biological target: T6, GST-Dyn1xA-PRR P830/833A (rat) (UniProt P21575)
T6 sequence: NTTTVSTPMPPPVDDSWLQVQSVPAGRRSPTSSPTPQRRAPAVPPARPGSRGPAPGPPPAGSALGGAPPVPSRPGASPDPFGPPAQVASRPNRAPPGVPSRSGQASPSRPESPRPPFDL

[7] = biological target: T7, GST-Dyn1xA-PRR P813/816A (rat) (UniProt P21575)
T7 sequence: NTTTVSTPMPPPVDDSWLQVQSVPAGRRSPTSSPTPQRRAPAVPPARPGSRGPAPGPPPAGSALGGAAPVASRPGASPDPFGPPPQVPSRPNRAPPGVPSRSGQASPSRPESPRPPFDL

GST-Dyn1xA 746-798 (rat) = biological target: T8, GST-Dyn1xA 746-798 (rat) (UniProt P21575)
T8 sequence: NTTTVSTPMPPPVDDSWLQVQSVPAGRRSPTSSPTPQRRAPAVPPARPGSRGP

[8] = biological target: T9, GST-Dyn1xA-PRR P844A (rat) (UniProt P21575)
T9 sequence: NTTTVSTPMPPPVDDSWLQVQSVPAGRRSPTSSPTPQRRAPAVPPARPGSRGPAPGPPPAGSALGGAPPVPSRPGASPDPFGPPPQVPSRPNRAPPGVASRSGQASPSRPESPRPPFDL

[9] = biological target: T10, GST-Dyn1xA-PRR R846A (rat) (UniProt P21575)
T10 sequence: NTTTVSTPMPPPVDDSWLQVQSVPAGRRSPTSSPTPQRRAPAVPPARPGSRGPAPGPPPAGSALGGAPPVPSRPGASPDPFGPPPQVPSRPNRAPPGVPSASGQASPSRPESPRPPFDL

GST-Dyn1xA 806-864 (rat) = biological target: T11, GST-Dyn1xA 806-864 (rat) (UniProt P21575)
T11 sequence: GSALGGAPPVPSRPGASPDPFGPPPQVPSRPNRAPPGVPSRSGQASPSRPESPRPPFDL

[10] = biological target: T12, GST-Dyn1xA 806-864 P816/819A (rat) (UniProt P21575)
T12 sequence: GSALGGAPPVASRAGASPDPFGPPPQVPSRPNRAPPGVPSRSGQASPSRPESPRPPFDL

[11] = biological target: T13, GST-Dyn1xA-PRR P816/819A (rat) (UniProt P21575)
T13 sequence: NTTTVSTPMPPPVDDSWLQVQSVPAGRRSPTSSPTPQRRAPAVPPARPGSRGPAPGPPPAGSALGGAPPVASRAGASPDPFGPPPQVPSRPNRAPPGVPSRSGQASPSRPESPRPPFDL

[12] = biological target: T14, GST-Dyn1xA 806-864 P833/836A (rat) (UniProt P21575)
T14 sequence: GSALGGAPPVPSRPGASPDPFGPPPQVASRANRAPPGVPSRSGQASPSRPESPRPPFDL

GST-Dyn1xA 794-864 (rat) = biological target: T15, GST-Dyn1xA 794-864 (rat) (UniProt P21575)
T15 sequence: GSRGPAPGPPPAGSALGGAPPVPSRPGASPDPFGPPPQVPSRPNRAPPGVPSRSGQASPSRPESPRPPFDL

[13] = biological target: GST-Dyn1xA-PRR (full-length proline-rich region of Dynamin 1 splice variant xA, 746-864) (rat) (UniProt P21575)
[14] = biological target: T16, GST-Dyn1xA 806-864 R838A (rat) (UniProt P21575)
T16 sequence: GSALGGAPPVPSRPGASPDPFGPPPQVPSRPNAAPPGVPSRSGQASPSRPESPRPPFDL

binding [1]: binds
binding [2]: binds
binding [3]: binds
binding [4]: binds
binding [5]: no binding
binding [6]: no binding
binding [7]: binds
binding (GST-Dyn1xA 746-798 (rat)): no binding
binding [8]: binds
binding [9]: binds
binding (GST-Dyn1xA 806-864 (rat)): binds
binding [10]: binds
binding [11]: binds
binding [12]: no binding
binding (GST-Dyn1xA 794-864 (rat)): binds
binding [13]: binds
binding [14]: binds weakly
B1: Amphiphysin 1 (endogenous, rat brain synaptosomes) (protein, UniProt O08838 1-683)
chain: MADIKTGIFAKNVQKRLNRAQEKVLQKLGKADETKDEQFEEYVQNFKRQEAEGTRLQRELRGYLAAIKGMQEASMKLTESLHEVYEPDWYGREDVKMVGEKCDVLWEDFHQKLVDGSLLTLDTYLGQFPDIKNRIAKRSRKLVDYDSARHHLEALQSSKRKDESRISKAEEEFQKAQKVFEEFNVDLQEELPSLWSRRVGFYVNTFKNVSSLEAKFHKEIAVLCHKLYEVMTKLGDQHADKAFSIQGAPSDSGPLRIAKTPSPPEEASPLPSPTASPNHTLAPASPAPVRPRSPSQTRKGPPVPPLPKVTPTKELQQENIINFFEDNFVPEINVTTPSQNEVLEVKKEETLLDLDFDPFKPDVTPAGSAAATHSPMSQTLPWDLWTTSTDLVQPASGGSFNDFTQPQDTSLFTMQTDQNMAETEQALPTEPQAEEPPTTAAAPTAGLDLGLEMEEPKEEAAIPPGTDAGETVGTEGSTGEEAEAEKAALPAGEGESPEGAKIDVESTELASSESPQAAELEAGAPQEKVIPSVVIEPASNHEGEEHQETTTGTETREATEDVAPQGPAGEKQELATEPTPLDSQAATPAPAGAVDASLSAGDAAQELPPGFLYKVETLHDFEAANSDELTLQRGDVVLVVPSDSEADQDAGWLVGVKESDWLQYRDLATYKGLFPENFTRHLE

From publication doi:10.1101/2023.09.21.558797
